# Results as given in article PMC4336329 (PLoS ONE, 2015).
# Screen size: about 310,000 compounds; about 14,000 (4.5%) showed an effect of 50% or more. Effects have a minus sign here. The list shows a part of the results.
# Target: human ether-à-go-go-related gene (hERG) potassium channel (human, UniProt Q12809)
# Experiment: primary screen, population patch clamp on CHO cells stably expressing hERG
# 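Also: peak tail current of the secondary pulse compared with the same well before compound.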
# Sequence of human ether-à-go-go-related gene (hERG) potassium channel (Q12809 whole entry, looked up): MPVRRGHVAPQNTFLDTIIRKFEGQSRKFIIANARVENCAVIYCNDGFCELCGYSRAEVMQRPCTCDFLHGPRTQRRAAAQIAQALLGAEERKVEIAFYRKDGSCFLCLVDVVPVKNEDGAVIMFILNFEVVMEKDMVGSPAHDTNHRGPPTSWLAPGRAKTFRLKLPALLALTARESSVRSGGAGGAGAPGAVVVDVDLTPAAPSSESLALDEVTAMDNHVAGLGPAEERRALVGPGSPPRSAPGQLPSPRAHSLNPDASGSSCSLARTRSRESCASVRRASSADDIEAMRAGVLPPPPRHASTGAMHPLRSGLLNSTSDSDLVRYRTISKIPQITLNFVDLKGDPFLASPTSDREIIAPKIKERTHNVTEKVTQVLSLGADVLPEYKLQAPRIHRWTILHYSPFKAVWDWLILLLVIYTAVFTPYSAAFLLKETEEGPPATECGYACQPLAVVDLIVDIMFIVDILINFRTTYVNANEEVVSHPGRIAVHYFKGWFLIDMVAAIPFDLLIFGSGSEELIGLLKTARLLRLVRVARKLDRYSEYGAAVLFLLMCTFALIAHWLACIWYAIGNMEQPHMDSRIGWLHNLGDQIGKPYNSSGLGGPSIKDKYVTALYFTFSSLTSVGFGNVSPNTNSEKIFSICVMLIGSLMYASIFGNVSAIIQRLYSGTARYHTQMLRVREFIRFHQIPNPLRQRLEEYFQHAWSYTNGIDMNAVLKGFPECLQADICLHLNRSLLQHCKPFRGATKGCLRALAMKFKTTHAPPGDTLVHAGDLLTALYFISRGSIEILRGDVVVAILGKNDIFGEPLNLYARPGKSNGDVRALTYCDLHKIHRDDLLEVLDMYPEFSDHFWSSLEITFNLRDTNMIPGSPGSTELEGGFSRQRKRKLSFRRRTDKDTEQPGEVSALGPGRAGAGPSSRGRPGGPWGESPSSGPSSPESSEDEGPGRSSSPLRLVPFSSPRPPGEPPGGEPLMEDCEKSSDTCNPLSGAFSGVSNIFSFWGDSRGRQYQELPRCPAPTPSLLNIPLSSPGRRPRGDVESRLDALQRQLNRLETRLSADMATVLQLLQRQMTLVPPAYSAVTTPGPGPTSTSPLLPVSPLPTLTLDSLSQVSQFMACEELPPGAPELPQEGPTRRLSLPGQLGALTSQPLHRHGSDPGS
row,SMILES,"hERG current change (%, negative = inhibition) at 10uM [%]"
1,COCCNC(=O)c1ccc2ccccc2n1,0.29
2,O=C(CCC(=O)N1CCOc2ccc(Cl)cc21)NCCN1CCOCC1,3.97
3,Cc1cc(NS(=O)(=O)c2ccc(NC(=O)COc3cc(C)c(Cl)c(C)c3)cc2)no1,10.4
4,COc1ccccc1Nc1nc(-c2cccnc2)cs1,-10.6
5,CC1CCCN(C(=O)c2ccc3c(c2)OCCO3)C1 (stereo not drawn),1.16
6,Cc1nn(S(=O)(=O)c2ccc(F)cc2)c(C)c1S(=O)(=O)N1CCCCC1,11.3
7,Cc1onc(-c2ccccc2)c1C(=O)Nc1nnc(N(C)Cc2ccccc2)s1,-2.31
8,COCCN1C(=O)C(=O)/C(=C(/O)c2ccc(S(=O)(=O)N3CCOCC3)cc2)C1c1cccc(OC)c1 (stereo not drawn),21.4
9,CC(=O)Nc1ccc2c(c1)nc(C)n2-c1ccccc1,11.6
10,COc1ccc(CNC(=O)c2ccc(N3CCCC3=O)cc2)cc1,-0.616
11,CCCCN(C(=O)c1cccc(S(=O)(=O)N2CC(C)OC(C)C2)c1)c1c(N)n(CCCC)c(=O)[nH]c1=O (stereo not drawn),7.96
12,COc1ccc(OC)c(-n2c(=O)c3ccccc3c3ccccc3c2=O)c1,12.5
13,O=C(c1ccc(COc2ccccc2[N+](=O)[O-])o1)N1CCCCCC1,-16.5
14,CCO[C@@H]1OC(C(=O)O)=C[C@H](c2coc3ccccc3c2=O)[C@H]1CCCO,18.9
15,Cc1ccnc(NS(=O)(=O)c2ccc(NS(C)(=O)=O)cc2)n1,12.4
16,Cc1ccc(C(=O)NN2CCOCC2)cc1,-3.79
17,C=C(C(=O)O)C1CCC2(C)CCCC(C)(O)C2C1 (stereo not drawn),9.1
18,CCNS(=O)(=O)c1ccc(OC)c(C)c1,12.3
19,COc1ccc(NC(=O)COc2coc(CN3CCCc4ccccc43)cc2=O)cc1,-13.6
20,NC(=O)C1CCN(CC(=O)Nc2ccccc2C(=O)NC2CC2)CC1,1.42
21,CCN(Cc1ccccc1)S(=O)(=O)c1c(C)[nH]c(C)c1C(=O)N1CCCCC1,-5.33
22,CCOC(=O)N1CCN(C(=O)Cn2nc(C)n3nc(-c4ccc(OC)cc4)cc3c2=O)CC1,13.4
23,O=C(CSc1n[nH]c(=O)[nH]c1=O)c1ccccc1,5.81
24,CCOC(=O)C1=C(c2ccccc2)OC(N)=C(C#N)C1C1CCCCC1 (stereo not drawn),6.3

row,SMILES,"hERG current change (%, negative = inhibition) at 10uM [%]"
1,O=C(O)c1cc(-c2ccccc2)nc(-c2ccccc2)c1,22.5
2,CCOC(=O)N1CCN(C2=NC3(CCCCC3)C(C#N)C(=O)N2)CC1 (stereo not drawn),1.79
3,COc1ccc(C(=O)NCc2nnc(SCC(=O)c3ccccc3)n2C)cc1OC,-18.2
4,O=C(Nc1cccnc1)c1c(F)c(F)c(F)c(F)c1F,-6.62
5,COCCCNC(=O)CN(c1cc(Cl)ccc1OC)S(=O)(=O)c1ccc(C)c([N+](=O)[O-])c1,13.1
6,CC1CCCCN1c1nnc(NC(=O)c2cc(-c3ccc(Br)cc3)on2)s1 (stereo not drawn),-5.29
7,CC1CCCCN1C(=O)Cn1cc(C=O)c2ccccc21 (stereo not drawn),-5.3
8,COc1ccc(NC(=O)c2cccc(S(=O)(=O)N3CCc4ccccc43)c2)cn1,-0.939
9,O=C(O)c1cccnc1Cl,10.7
10,Cc1ccc(C)c(C(=O)OCC(=O)Nc2cccc(S(=O)(=O)N3CCCCC3)c2)c1,1.08
11,CCOc1ccc(S(=O)(=O)NC(C)C(=O)NC2CCCC2)cc1 (stereo not drawn),16.7
12,CS(=O)(=O)c1ccc(NC(=O)CCN2C(=O)C3CC=CCC3C2=O)cc1 (stereo not drawn),-3.8
13,COc1ccccc1Sc1ccccc1/C=N/NC(N)=O,19.6
14,COc1ccc(C(=S)N2CCN(C)CC2)cc1Br,-9.51
15,CS(=O)(=NS(=O)(=O)c1ccc(Cl)cc1)c1ccccc1 (stereo not drawn),-10.2
16,Cc1cccc(C)c1N1CCc2cn[nH]c21,8.17
17,Cc1ccnc(SCC(=O)c2ccc(Br)s2)n1,3.59
18,O=c1cc(-c2ccncc2)oc2ccccc12,0.135
19,O=C(CSCCO)Nc1ccccc1,6.45
20,O=C(Nc1cccnc1Cl)c1cc2c(s1)-c1ccccc1OC2,-3.48
21,CCOC(=O)c1cc(-c2ccc(C)o2)nn1CCC#N,10.7
22,Cc1nc2ccc([N+](=O)[O-])cc2c(=O)n1Cc1ccccc1Br,-13.6
23,CC1CCCCC1NC(=O)CCCn1c(=S)[nH]c2ccccc2c1=O (stereo not drawn),17.9
24,COC(=O)c1cc(NC(=O)C2(S(=O)(=O)c3ccc(C)cc3)CC2)cc(C(=O)OC)c1,-36.3

row,SMILES,"hERG current change (%, negative = inhibition) at 10uM [%]"
1,O=C(CSc1n[nH]c(-c2ccco2)n1)Nc1ccc(F)cc1,9.88
2,COCc1c(C(=O)N/N=C(\C)c2ccc(Cl)s2)nnn1-c1nonc1N,14.4
3,CCCC(c1nnnn1CS(=O)(=O)c1ccc(C)cc1)N1CCN(CC)CC1.Cl (stereo not drawn),-10.7
4,COc1ccc2[nH]c(C)c(CCNC(=S)Nc3cc(C)cc(C)c3)c2c1,18
5,CC1(C)Cc2c(sc3nc(-c4cccs4)n(N)c(=O)c23)CO1,-22.5
6,CC1=C2[C@@H]3OC(=O)[C@H](C)C3CC[C@@]2(C)C=CC1=O (stereo partly drawn),27.7
7,Oc1ccc2cccnc2c1,-2.63
8,O=C(c1ccc2ccccc2n1)N1CCN(c2ccccn2)CC1,-2.65
9,COc1cccc(N2C(=O)N(c3ccccc3Cl)C3CS(=O)(=O)CC32)c1 (stereo not drawn),0.167
10,Cc1cc2nc(-c3ccc[nH]c3=O)n(Cc3ccc(F)cc3)c2cc1C,-11.7
11,Cc1cc(C)c2c(n1)sc1c(N3CCCCC3)ncnc12,3.31
12,CSc1nc(-c2ccco2)nn1S(=O)(=O)c1ccc(C)cc1,-2.74
13,COC(=O)CCC(=O)OC1(C)C(=O)C=C2C=C(C3CC3)N(C3CCCCC3)C=C2C1=O (stereo not drawn),-18.2
14,CCOC(=O)CC(=O)NC(CC(=O)OC)c1ccc(Br)cc1 (stereo not drawn),7.04
15,CCOC(=O)c1ccc(NC(=O)C2CC(=O)Nc3nc4ccccc4n32)cc1 (stereo not drawn),11.1
16,CC(C)(C)Cc1nnc(NS(C)(=O)=O)s1,1.81
17,COc1ccccc1/C=C/c1nc(C#N)c(N(C)C)o1,17.4
18,Cc1cc(Br)c(S(=O)(=O)n2nnc3ccccc32)cc1C,5.1
19,Cc1cccc2sc(NC(=O)CNS(=O)(=O)c3ccc(Br)s3)nc12,12.3
20,Cc1noc(COc2ccccc2OCC(O)CNC(C)(C)C)n1.Cl (stereo not drawn),14.9
21,Cc1ccc(NS(=O)(=O)c2cccc(C(=O)NCCCN3CCOCC3)c2)cc1,-31.2
22,COc1ccc(S(=O)(=O)N2CCCCC2)cc1,0.024
23,Cc1ccc(C(=O)OCC(=O)NCCc2ccccc2)cc1C,-8.55
24,CN(/N=C/c1cc(Cl)cc(Cl)c1O)c1c(Cl)cccc1[N+](=O)[O-],4.19

row,SMILES,"hERG current change (%, negative = inhibition) at 10uM [%]"
1,Cc1cc(C(=O)NCC(C)(C)N2CCOCC2)c(C)o1,13.5
2,Cc1ccc(C(=O)NCC(=O)OCc2csc(-c3ccccc3)n2)cc1,14.8
3,CC1C/C(=C\c2ccccc2[N+](=O)[O-])c2nc3ccccc3c(C(=O)O)c2C1 (stereo not drawn),13
4,CC(=O)Nc1ccc2oc(-c3cc(F)c(F)cc3Cl)nc2c1,11.1
5,COc1ccc(-c2[nH]ncc2-c2cnc(C)s2)c(O)c1,19.3
6,N/C(=N\S(=O)(=O)c1cccs1)c1ccccc1,5.69
7,CC12CCCCC1N(O)CN2O (stereo not drawn),-12.9
8,Cc1[nH][nH]c(=O)c1C,6.25
9,O=C(CSc1nc2ccccc2[nH]1)Nc1c(F)c(F)c(F)c(F)c1F,-0.465
10,CC1CC(C)CN(C(=O)CN2C(=O)NC(C)(C)C2=O)C1 (stereo not drawn),0.776
11,Cc1cc(-n2c(=O)c(C#N)cc3c(=O)n4cccc(C)c4nc32)no1,-65.1
12,CCn1c(C)nc2cc(C(=O)OC)ccc21,14.3
13,Clc1ccc(Cl)c(OCCCCN2CCNCC2)c1.O=C(O)C(=O)O,-17.4
14,COC(=O)N(NC(=O)C(O)(c1ccccc1)c1ccccc1)c1ccc(C)cc1,0.00068
15,COc1ccc2[nH]c(C)cc(=O)c2c1,20.8
16,NC(=O)C1CCN(c2nc3c(S(=O)(=O)c4ccccc4)nnn3c3ccccc23)CC1,2.28
17,CC(=O)Nc1cc[n+](C(C)C(=O)c2ccc(Br)cc2)cc1.[Cl-] (stereo not drawn),2.81
18,Cc1ccc(-n2c(-c3ccncc3)n[nH]c2=S)cc1C,22.4
19,CC(C)CN(C(=O)CCC(=O)OCC(=O)N(C)c1ccccc1)c1c(N)n(CC(C)C)c(=O)[nH]c1=O,10.7
20,CCN(CC)CCN1C(=O)C(=O)/C(=C(/O)c2ccc(OC)cc2)C1c1ccco1 (stereo not drawn),8.87
21,Cn1c(=O)oc2cc(S(=O)(=O)NCCC(=O)N3CC=C(c4ccccc4)CC3)ccc21,-26
